Test results as given in publication PMC4336329 (PLoS ONE, 2015).
Screen size: about 310,000 compounds; about 2,200 (0.71%) showed an effect of 50% or more. The effect is printed as a negative number. The list shows a part of the results.

Target: human ether-à-go-go-related gene (hERG) potassium channel (human, UniProt Q12809)
Assay: primary screen, population patch clamp on CHO cells stably expressing hERG

human ether-à-go-go-related gene (hERG) potassium channel, sequence (Q12809 whole entry, looked up): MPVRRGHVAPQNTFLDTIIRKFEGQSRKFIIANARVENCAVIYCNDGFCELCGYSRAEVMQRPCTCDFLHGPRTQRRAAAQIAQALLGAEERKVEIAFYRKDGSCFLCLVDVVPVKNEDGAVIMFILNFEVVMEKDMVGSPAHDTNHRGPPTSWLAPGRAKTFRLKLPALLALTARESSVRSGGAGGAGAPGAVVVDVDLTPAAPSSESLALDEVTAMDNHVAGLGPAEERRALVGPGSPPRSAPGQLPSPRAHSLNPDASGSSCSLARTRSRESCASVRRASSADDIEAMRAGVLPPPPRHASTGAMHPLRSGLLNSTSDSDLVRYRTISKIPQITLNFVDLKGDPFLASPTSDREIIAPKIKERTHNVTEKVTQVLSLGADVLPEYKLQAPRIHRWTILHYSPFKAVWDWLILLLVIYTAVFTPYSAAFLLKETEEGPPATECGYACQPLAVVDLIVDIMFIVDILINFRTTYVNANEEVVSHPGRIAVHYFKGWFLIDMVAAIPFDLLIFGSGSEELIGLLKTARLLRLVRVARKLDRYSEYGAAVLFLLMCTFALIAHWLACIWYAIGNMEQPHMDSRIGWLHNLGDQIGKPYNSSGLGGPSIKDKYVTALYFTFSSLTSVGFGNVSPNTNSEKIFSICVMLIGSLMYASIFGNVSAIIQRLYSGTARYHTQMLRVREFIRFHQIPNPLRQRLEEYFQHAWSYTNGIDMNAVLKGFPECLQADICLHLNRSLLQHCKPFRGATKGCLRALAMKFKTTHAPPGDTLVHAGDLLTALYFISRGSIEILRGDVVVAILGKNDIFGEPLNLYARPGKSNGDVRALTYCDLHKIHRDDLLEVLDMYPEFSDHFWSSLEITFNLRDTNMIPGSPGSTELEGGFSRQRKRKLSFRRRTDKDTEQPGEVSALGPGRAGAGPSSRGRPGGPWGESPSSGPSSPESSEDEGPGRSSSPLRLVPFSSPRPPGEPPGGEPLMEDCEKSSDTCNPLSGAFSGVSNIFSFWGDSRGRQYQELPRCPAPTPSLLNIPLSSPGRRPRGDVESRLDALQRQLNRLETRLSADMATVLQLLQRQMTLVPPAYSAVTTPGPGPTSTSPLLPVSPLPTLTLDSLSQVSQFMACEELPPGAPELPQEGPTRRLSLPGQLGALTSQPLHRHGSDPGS

Row | Structure (SMILES) | hERG current change (%, negative = inhibition) at 1uM [%]
1 | Cc1ccnc(NC(=O)CNC(=O)c2ccc(Br)o2)c1 | 8.01
2 | COc1ccc(Cn2c(=O)[nH]c3cc(C(=O)NCCCOC(C)C)ccc3c2=O)cc1 | 9.26
3 | COc1ccc(-n2c(SCC(=O)N3CCCC3)nc3ccccc3c2=O)cc1 | 6.48
4 | Cc1cc(NC(=O)C2CC2)ncc1NC(=O)c1ccccn1 | 11.1
5 | COc1ccc2c(C)cc(SCC(=O)N(C)C3CCS(=O)(=O)C3)nc2c1 (stereo not shown) | 1.75
6 | CCOc1cccc(/C=C/C(=O)O)c1 | 1.39
7 | CCc1cc(=O)oc2c3c(cc(OCC(=O)NCc4cccnc4)c12)OC(C)(C)CC3 | 0.275
8 | COc1ccc(CN2CCNC(=O)C2CC(=O)N(C)CCC2CCOCC2)cc1OC (stereo not shown) | 13.7
9 | CN(C)S(=O)(=O)c1cc(NC(=O)CSc2cccc[n+]2[O-])ccc1Cl | 8.48
10 | C#CCOCCOCCOCCNc1nc(N2CCN(C(=O)[C@H](CCC(=O)O)n3cc(C(N)Cc4ccc(O)cc4)nn3)CC2)nc(N2CCN(C(=O)[C@H](Cc3cc4ccccc4[nH]3)n3cc(C(N)[C@H](C)CC)nn3)CC2)n1.Cl (stereo partly shown) | 9.28
11 | O=C(COc1ccccc1)N(Cc1ccccc1)c1nc(-c2ccccc2)cs1 | -0.45
12 | CCOC(=O)c1ccccc1NC(=O)Cc1sc(-c2cccnc2)nc1-c1ccc(C)cc1 | 6.78
13 | Cc1nc2sc(C(c3ccco3)N3CCN(C(c4ccccc4)c4ccccc4)CC3)c(O)n2n1 (stereo not shown) | 17.5
14 | CCOc1ccc(C(=O)NCc2cccnc2)cc1[N+](=O)[O-] | -38
15 | O=C(O)C1CCCCC1C(=O)N1CCCC1 (stereo not shown) | 18.7
16 | CC(=O)c1ccc(-n2nnnc2SCC(=O)Nc2sc(C)c(C)c2C#N)cc1 | 3.46
17 | Nc1ccc2c(c1)Cc1ccccc1-2 | 6.39
18 | CCN(CC)CCOC(=O)c1ccc([N+](=O)[O-])cc1.Cl | 6.45
19 | CCOC(=O)N1CCN(C(=O)c2ccc3c(=O)n(CCc4ccc(OC)c(OC)c4)c(=O)[nH]c3c2)CC1 | 20.4
20 | COc1ccccc1NC(=O)c1cccc(NC(=O)c2ccco2)c1 | 1.88
21 | O=C(NCc1ccccc1)c1ccc(Oc2ccc(C(=O)NCc3ccccc3)cc2)cc1 | 3.93
22 | N#C/C(=C/c1ccc(O)c(O)c1)c1nc2ccccc2[nH]1 | 14.2

Row | Structure (SMILES) | hERG current change (%, negative = inhibition) at 1uM [%]
23 | COc1cc(OC)cc(-c2nc3ccccc3c(=O)n2NC(=O)c2cccnc2Cl)c1 | 16.5
24 | Cc1[nH]nc(SCC(=O)N2CCCCCC2)c1[N+](=O)[O-] | 13.4
25 | COc1cccc(C(=O)N2CCN(C(=O)c3ccc(-c4ccccc4)cc3)CC2)c1OC | -1.48
26 | COC(=O)c1ccc2[nH]c(C(C)(C)O)c(C)c2c1 | 15.8
27 | CC(Oc1ccc2c3c(c(=O)oc2c1)CCC3)C(=O)NCCCn1ccnc1 (stereo not shown) | 11.2
28 | Cc1c(C(=O)Nc2ccc(Cl)cc2)c2ccccn2c1C(=O)c1ccc([N+](=O)[O-])cc1 | 8.01
29 | Cc1ccc(S(=O)(=O)Cc2ccc(C(=O)NCc3ccc4c(c3)OCO4)o2)cc1 | 2.65
30 | O=C(CN(C1CCCCC1)C1CCCCC1)N1CCc2ccccc2C1.O=C(O)C(=O)O | 8.82
31 | CC1CCCN(c2cc3c(cc2[N+](=O)[O-])C(=O)N(c2ccccc2)C3=O)C1 (stereo not shown) | 7.63
32 | CC(=O)Nc1ccc(S(=O)(=O)N(C)CC(=O)OCC(=O)NNC(=O)c2ccccc2F)cc1 | 14.8
33 | COc1cc(CNCC(C)C)cc(Br)c1OCC(=O)Nc1ccccc1.Cl | 4.54
34 | O=C(c1ccccc1)c1ccc(C(=O)N2CCCC(C(F)(F)F)C2)cc1 (stereo not shown) | 5.52
35 | COc1ccccc1S(=O)(=O)N1CCN(S(=O)(=O)c2cccs2)CC1 | 12.3
36 | O=C1[C@H]2[C@@H](/C=C/c3ccccc3)N3C(=O)CN(CCO)C(=O)[C@@]3(Cc3ccccc3)[C@H]2C(=O)N1c1ccccc1 | 20.9
37 | COc1ccccc1NC(=O)CC1C(=O)NCCN1C(=O)Nc1ccccc1 (stereo not shown) | 1.06
38 | NC(=O)CC(NC(=O)Cc1cccc2ccccc12)c1ccc(NCc2ccccn2)c([N+](=O)[O-])c1 (stereo not shown) | 16.3
39 | C[C@H](NC(=O)c1nc[nH]c1C(=O)NCCCCC[NH3+])C(=O)OCc1ccccc1.[Cl-] | 15.1
40 | Cc1nn(C)cc1CNC(=O)Nc1cccc(Cl)c1 | 7.62
41 | Cc1cccc2nc(COc3ccc(-c4ccccc4)cc3)cn12 | 6.42
42 | Cc1cc2c(cc1C)C(=O)NC(C)(C)C2 | 16
43 | O=C(O)c1cc2c(cc1Br)OCCCO2 | 3.06
44 | COc1ccc(C=O)cc1Cn1ccnc1.Cl | 9.02

Row | Structure (SMILES) | hERG current change (%, negative = inhibition) at 1uM [%]
45 | COc1ccc(Cn2c(=O)[nH]c3cc(C(=O)NCCCN4CCCCC4)ccc3c2=O)cc1 | 5.03
46 | Cc1ccc2nc(Nc3ccccc3)c(/C=N/O)c(=O)n2c1 | 11.2
47 | COc1ccc(OC)c(/C=N/NC(=O)c2ccncc2)c1 | 13.6
48 | NC(=O)c1ccc[n+]([C@H]2O[C@@H](COP(=O)([O-])OP(=O)(O)OC[C@H]3O[C@@H](n4cnc5c(N)ncnc54)[C@H](O)[C@@H]3O)[C@H](O)[C@@H]2O)c1 | 15.6
49 | COc1ccc(C(=O)NC2(C(F)(F)F)NC(=O)N(CCCc3ccccc3)C2=O)c(OC)c1OC (stereo not shown) | 1.27
50 | COc1ccc(-c2cc(C(F)(F)F)n3nc(C(=O)O)nc3n2)cc1 | 17.1
51 | CC(C)[C@@H]1NC(=O)c2cc([N+](=O)[O-])cc(I)c2NCCC[C@@H](C(=O)NC(CC(=O)O)C(N)=O)NC(=O)[C@H](CO)NC1=O (stereo partly shown) | -17.3
52 | O=C(NN=C1CCCC1)c1cc(O)cc(O)c1 | 13.4
53 | Cc1nc(SCC(=O)Nc2ccc(OCc3ccccc3)cc2)n[nH]1 | 12
54 | CCN(CC)S(=O)(=O)c1cc(NC(=O)c2cccc(N3C(=O)CCC3=O)c2)ccc1Cl | 11.2
55 | CCN(C(=O)c1cc(S(=O)(=O)N2CCCC2)ccc1C)C1CCS(=O)(=O)C1 (stereo not shown) | 2.71
56 | Cc1nccn1Cc1ccccc1 | 26.4
57 | CC(C)OC(=O)NCCOC(=O)Nc1ccccc1Cl | 12
58 | CN(c1ccccc1)S(=O)(=O)c1ccc(C(=O)NNC(=O)c2ccccc2)cc1 | 5.77
59 | O=C(NC(=O)c1ccccc1)Nc1ccccc1 | 15.9
60 | COC(=O)c1c(C(=O)OC)c2oc3ccccc3n2c1Cl | 3.38
61 | CC(=O)OCn1nnc2ccccc2c1=O | 11.3
62 | O=C1NC(=O)/C(=C/c2ccccc2Cl)N1 | 8.63
63 | O=C1NC(=O)C(c2ccccc2)(c2ccc(O)cc2)N1 (stereo not shown) | 10.8
64 | O=C(NCc1cccc(Br)c1)C1CC(c2cc(C(F)(F)F)cc(C(F)(F)F)c2)=NO1 (stereo not shown) | 5.59
65 | Cn1c(C(F)(F)F)nc2c(=O)oc3ccccc3c21 | -7.06
66 | Cc1ccc(NC(=O)CSc2nc(N)c(-c3ccccc3)c(=O)[nH]2)cc1Cl | 16.3

Row | Structure (SMILES) | hERG current change (%, negative = inhibition) at 1uM [%]
67 | Cc1c(C(=O)N2CCCC(C(F)(F)F)C2)oc2ccccc12 (stereo not shown) | 4.51
68 | CN(C)NC(=O)c1csnc1-c1c(Cl)cccc1Cl | 11.9
69 | CN1CCCC(C(=O)c2ccc(-c3ccccc3)cc2)C1 (stereo not shown) | 5.8
70 | Cc1ccc(SC/C(O)=C(\C#N)c2nc3ccccc3n2C)cc1 | 5.99
71 | Cc1cc(C)cc(N2CCN(C(=O)N3CCOCC3)CC2)c1 | 12.5
72 | Cc1ccc(-c2cc(C(=O)N3CCCC(C(F)(F)F)C3)c3ccccc3n2)o1 (stereo not shown) | -2.51
73 | Cc1cccc(NC(=O)c2ccc(S(=O)(=O)N3CCOCC3)cc2)c1C | 13.1
74 | CCOc1ccc(NC(=O)CN2C(=O)NC3(CCCC3)C2=O)cc1S(=O)(=O)N1CCCCC1 | 14.5
75 | COc1cc(/C(=C/c2ccccc2)c2ccccc2)c2c(c1)oc1ccccc12 | 15.8
76 | CC(=O)Nc1cccc(Oc2nc(-c3ccccn3)nc3ccccc23)c1 | 10.4
77 | OCCN1CCN(Cc2nc(-c3cccc(Cl)c3)no2)CC1 | 6.88
78 | Cc1ccc(-c2n[nH]c(=S)n2Cc2ccccc2)cc1 | 8.36
79 | COn1c(C)c(C(C)=O)c2c3nonc3ccc21 | 7.26
80 | Cl.O=C(O)CN1CCCCC1 | 1.57
81 | CC(=N[C@@H]1CCCC[C@H]1N=C(C)c1ccccc1O)c1ccccc1O | 4.66
82 | CC(=O)Nc1cc(C(C)C)c(O)c(C(C)C)c1 | -1.01
83 | O=C1CC(c2ccccc2)NN1 (stereo not shown) | 19.4
84 | COc1ccccc1NC(=O)C(=O)NCC(c1ccco1)N1CCc2ccccc2C1 (stereo not shown) | 10.6
85 | COC(=O)c1ccc(NC(=O)c2sc3nc(-c4ccccc4)cn3c2C)cc1 | 12.3
